# According to the supplement of paper PMC8728848:
# The other results are listed elsewhere or left out.
# B1: GS14009A-pdi-495-27-495 (Parabacteroides distasonis) (protein)
# chain: FEEVNTDPDSPTDVPTTNLLAYSLYYTSYRLYDRWFAMDEPMTFCGYASKMTYIDESRYNFRTGVQDTNWEYLYRILNNLKDIEKRATFNETPNMLNVSKVMQVHLMQVATDRWRDVPYTDAAKMTDGILQPKYDKQEDIYPGLLATLKEAADGFADGGSDDLGEGDLLFGGDIEKWQRYCNSMRLRLAMRISEVSPALAKETVEEVMGNPTKYPIMESNDDNAFFWWIGTDPNYYEPMADGYRTRKTEYCAADVIVDHMNTREDPRRSSYFQPTKESVEAGEPKYVGYTIGAKANAVASKYSIWGARFFTDLAGFSPYMRVAEPWFCVAEASMLGWNTGISAEDAYNKAVTYSMEENSVSAEDIADYLANAGKFTNDKKQIYYEEWVAMFKQGMEGWSLYRRTGVPDNLYPAPGRPANYSNHNVPPFRSPYPDKERNLNNANCAPFDAEVVDNLWGKQMWWDTRTGVH
# Assays:
# Assay in all cases: glycan array binding signal (z-score within array); higher = stronger binding
# Settings in all cases: glycan notation: IUPAC condensed, linker removed
# Gal3S6S(b1-4)GlcNAc = molecular target: Gal3S6S(b1-4)GlcNAc
# Summary of the method: (§1)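 Glycan array data were curated from 3228 arrays in the Consortium for Functional Glycomics database and kept only where the protein sequence was available. Glycan names were converted to IUPAC-condensed notation, and columns mapping to the same glycan were averaged. The binding signal is a within-array Z-score, averaged across arrays of the same protein sequence at different concentrations or buffers and across linkers. Negative Z-scores can be read as non-binding.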
# Gal3S6S(b1-4)GlcNAc6S = molecular target: Gal3S6S(b1-4)GlcNAc6S
# Summary of the method: as §1
# Gal4S(b1-4)GlcNAc = molecular target: Gal4S(b1-4)GlcNAc
# Summary of the method: as §1
# Gal4S6S(b1-4)GlcNAc = molecular target: Gal4S6S(b1-4)GlcNAc
# Summary of the method: as §1
# Gal6P(b1-4)GlcNAc = molecular target: Gal6P(b1-4)GlcNAc
# Summary of the method: as §1
# Gal6S(b1-3)GlcNAc = molecular target: Gal6S(b1-3)GlcNAc
# Summary of the method: as §1
# Gal6S(b1-3)GlcNAc6S = molecular target: Gal6S(b1-3)GlcNAc6S
# Summary of the method: as §1
# Gal6S(b1-4)Glc = molecular target: Gal6S(b1-4)Glc
# Summary of the method: as §1
# Gal6S(b1-4)Glc6S = molecular target: Gal6S(b1-4)Glc6S
# Summary of the method: as §1
# Gal6S(b1-4)GlcNAc = molecular target: Gal6S(b1-4)GlcNAc
# Summary of the method: as §1
# Gal6S(b1-4)GlcNAc6S = molecular target: Gal6S(b1-4)GlcNAc6S
# Summary of the method: as §1
# GalNAc(a1-3)Gal = molecular target: GalNAc(a1-3)Gal
# Summary of the method: as §1
# GalNAc(a1-3)GalNAc = molecular target: GalNAc(a1-3)GalNAc
# Summary of the method: as §1
# [1] = molecular target: GalNAc(a1-3)GalNAc(b1-3)Gal(a1-4)Gal(b1-4)Glc
# Summary of the method: as §1
# [2] = molecular target: GalNAc(a1-3)GalNAc(b1-3)Gal(a1-4)Gal(b1-4)GlcNAc
# Summary of the method: as §1
# GalNAc(b1-3)Gal = molecular target: GalNAc(b1-3)Gal
# Summary of the method: as §1
# [3] = molecular target: GalNAc(b1-3)Gal(a1-4)Gal(b1-4)GlcNAc
# Summary of the method: as §1
# [4] = molecular target: GalNAc(b1-3)Gal(a1-4)Gal(b1-4)GlcNAc(b1-3)Gal(b1-4)Glc
# Summary of the method: as §1
# [5] = molecular target: GalNAc(b1-3)Gal(a1-6)Gal(b1-4)Glc
# Summary of the method: as §1
# GalNAc(b1-3)GalNAc = molecular target: GalNAc(b1-3)GalNAc
# Summary of the method: as §1
# GalNAc(b1-3)GlcNAc = molecular target: GalNAc(b1-3)GlcNAc
# Summary of the method: as §1
# GalNAc(b1-4)Gal(b1-4)Glc = molecular target: GalNAc(b1-4)Gal(b1-4)Glc
# Summary of the method: as §1
# GalNAc(b1-4)GlcNAc = molecular target: GalNAc(b1-4)GlcNAc
# Summary of the method: as §1
# [6] = molecular target: GalNAc(b1-4)GlcNAc(b1-2)Man
# Summary of the method: as §1
# [7] = molecular target: GalNAc(b1-4)GlcNAc(b1-2)Man(a1-3)[GalNAc(b1-4)GlcNAc(b1-2)Man(a1-6)]Man(b1-4)GlcNAc(b1-4)GlcNAc
# Summary of the method: as §1
# [8] = molecular target: GalNAc(b1-4)GlcNAc(b1-3)GalNAc(b1-4)GlcNAc
# Summary of the method: as §1
# GalNAc(b1-4)GlcNAc6S = molecular target: GalNAc(b1-4)GlcNAc6S
# Summary of the method: as §1
# GalNAc(b1-6)GalNAc = molecular target: GalNAc(b1-6)GalNAc
# Summary of the method: as §1
# GalNAc3S(b1-4)GlcNAc = molecular target: GalNAc3S(b1-4)GlcNAc
# Summary of the method: as §1
# GalNAc3S(b1-4)GlcNAc3S = molecular target: GalNAc3S(b1-4)GlcNAc3S
# Summary of the method: as §1
# [9] = molecular target: GalNAc3S(b1-4)[Fuc(a1-3)]GlcNAc
# Summary of the method: as §1
# GalNAc4S6S(b1-4)GlcNAc = molecular target: GalNAc4S6S(b1-4)GlcNAc
# Summary of the method: as §1
# GalNAc6S(b1-4)GlcNAc = molecular target: GalNAc6S(b1-4)GlcNAc
# Summary of the method: as §1
# Glc(a1-4)Glc = molecular target: Glc(a1-4)Glc
# Summary of the method: as §1
# [10] = molecular target: Glc(a1-4)Glc(a1-4)Glc(a1-4)Glc
# Summary of the method: as §1
# Glc(a1-6)Glc(a1-6)Glc = molecular target: Glc(a1-6)Glc(a1-6)Glc
# Summary of the method: as §1
# [11] = molecular target: Glc(a1-6)Glc(a1-6)Glc(a1-6)Glc
# Summary of the method: as §1
# Glc(b1-4)Glc = molecular target: Glc(b1-4)Glc
# Summary of the method: as §1
binder,measurement,setting,value
B1,glycan array binding signal (z-score),Gal3S6S(b1-4)GlcNAc,-0.34
same,glycan array binding signal (z-score),Gal3S6S(b1-4)GlcNAc6S,0.712
same,glycan array binding signal (z-score),Gal4S(b1-4)GlcNAc,-0.28
same,glycan array binding signal (z-score),Gal4S6S(b1-4)GlcNAc,-0.854
same,glycan array binding signal (z-score),Gal6P(b1-4)GlcNAc,-0.561
same,glycan array binding signal (z-score),Gal6S(b1-3)GlcNAc,-0.313
same,glycan array binding signal (z-score),Gal6S(b1-3)GlcNAc6S,0.006
same,glycan array binding signal (z-score),Gal6S(b1-4)Glc,0.253
same,glycan array binding signal (z-score),Gal6S(b1-4)Glc6S,1.06
same,glycan array binding signal (z-score),Gal6S(b1-4)GlcNAc,-0.501
same,glycan array binding signal (z-score),Gal6S(b1-4)GlcNAc6S,0.26
same,glycan array binding signal (z-score),GalNAc(a1-3)Gal,0.447
same,glycan array binding signal (z-score),GalNAc(a1-3)GalNAc,0.253
same,glycan array binding signal (z-score),[1],-0.395
same,glycan array binding signal (z-score),[2],-0.352
same,glycan array binding signal (z-score),GalNAc(b1-3)Gal,-0.403
same,glycan array binding signal (z-score),[3],-0.096
same,glycan array binding signal (z-score),[4],-0.364
same,glycan array binding signal (z-score),[5],0.151
same,glycan array binding signal (z-score),GalNAc(b1-3)GalNAc,-0.605
same,glycan array binding signal (z-score),GalNAc(b1-3)GlcNAc,-0.362
same,glycan array binding signal (z-score),GalNAc(b1-4)Gal(b1-4)Glc,-0.282
same,glycan array binding signal (z-score),GalNAc(b1-4)GlcNAc,0.122
same,glycan array binding signal (z-score),[6],-0.162
same,glycan array binding signal (z-score),[7],0.256
same,glycan array binding signal (z-score),[8],-0.71
same,glycan array binding signal (z-score),GalNAc(b1-4)GlcNAc6S,0.203
same,glycan array binding signal (z-score),GalNAc(b1-6)GalNAc,-0.391
same,glycan array binding signal (z-score),GalNAc3S(b1-4)GlcNAc,-0.416
same,glycan array binding signal (z-score),GalNAc3S(b1-4)GlcNAc3S,0.001
same,glycan array binding signal (z-score),[9],0.471
same,glycan array binding signal (z-score),GalNAc4S6S(b1-4)GlcNAc,0.138
same,glycan array binding signal (z-score),GalNAc6S(b1-4)GlcNAc,-0.487
same,glycan array binding signal (z-score),Glc(a1-4)Glc,-0.285
same,glycan array binding signal (z-score),[10],-0.358
same,glycan array binding signal (z-score),Glc(a1-6)Glc(a1-6)Glc,-0.514
same,glycan array binding signal (z-score),[11],-0.412
same,glycan array binding signal (z-score),Glc(b1-4)Glc,-0.217
